Test results as given in publication PMC6919601, “Identification of Plasmodium dipeptidyl aminopeptidase allosteric inhibitors by high throughput screening” (PLoS ONE, 2019).
Screen size: about 110,000 compounds; about 230 (0.21%) showed an effect of 50% or more. The list shows a part of the results.

Molecular target: DPAP1 (Plasmodium falciparum, UniProt Q8IIJ9)
Test: primary screen, percent inhibition; read by cleavage of a fluorogenic dipeptide substrate; higher = more effect of the substance
Set-up: species or system P. falciparum D10 trophozoite lysates; single well
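Also: 30 min substrate incubation versus DMSO and 10 µM JCP410 controls.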

Sequence of DPAP1 (Q8IIJ9 whole entry, looked up): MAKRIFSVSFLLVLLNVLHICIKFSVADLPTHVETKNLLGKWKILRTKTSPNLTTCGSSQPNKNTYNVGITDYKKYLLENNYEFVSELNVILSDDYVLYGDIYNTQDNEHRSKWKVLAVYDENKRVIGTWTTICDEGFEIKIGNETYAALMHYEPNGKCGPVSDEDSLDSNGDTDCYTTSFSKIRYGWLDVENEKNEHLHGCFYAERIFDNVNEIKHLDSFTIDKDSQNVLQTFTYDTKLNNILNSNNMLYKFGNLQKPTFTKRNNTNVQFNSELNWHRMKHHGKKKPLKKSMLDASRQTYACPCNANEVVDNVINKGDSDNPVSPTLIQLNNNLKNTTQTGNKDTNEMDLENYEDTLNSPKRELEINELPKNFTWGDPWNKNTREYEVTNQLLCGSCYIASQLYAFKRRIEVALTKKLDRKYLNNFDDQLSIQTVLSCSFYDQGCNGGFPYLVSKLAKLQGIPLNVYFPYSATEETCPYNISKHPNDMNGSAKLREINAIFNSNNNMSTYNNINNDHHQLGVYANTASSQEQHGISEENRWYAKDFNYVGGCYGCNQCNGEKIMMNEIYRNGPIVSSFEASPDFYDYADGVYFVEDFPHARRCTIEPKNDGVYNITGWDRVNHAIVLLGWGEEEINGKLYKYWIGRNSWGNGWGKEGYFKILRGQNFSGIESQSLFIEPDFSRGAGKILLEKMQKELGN

| Compound | % Inhibition @ 10 uM |
| --- | --- |
| CN1CCCN(CCCc2ccccc2)CC1 | 0.217% |
| Cc1ccc(C2CC(c3ccccc3C)n3nnnc3N2)cc1 (stereo not drawn) | 0.0842% |
| COc1ccc(CNCc2cccc(OC)c2OC)cc1 | -2.14% |
| CC1CCCN(S(=O)(=O)c2ccc(F)cc2)C1 (stereo not drawn) | -3.04% |
| CCN1CCC(NCCC2=CCCCC2)CC1 | 0.217% |
| CS(=O)(=O)N(CC(=O)Nc1cccc(Cl)c1)c1cccc(Cl)c1 | -3.94% |
| CCC(C(=O)NC(C)C)n1nc(C)c2c(C)n(-c3ccc(C)cc3)nc2c1=O (stereo not drawn) | -3.81% |
| O=C(Cn1ncc2c1-c1ccccc1OC2)Nc1nccs1 | -0.692% |
| COc1ccc(NC(=O)COc2ccc(C)cc2)cc1Cl | 7.09% |
| NS(=O)(=O)c1ccc(-c2ccc(/C=C3/C(=O)NN(c4cccc(Cl)c4)C3=O)o2)cc1 | 3.76% |
| CC(C)(C)C1(C)O[C@@H](C(N)=O)[C@H](C(N)=O)O1 | 0.035% |
| COCC(=O)Nc1ccc(C(=O)c2ccccc2)cc1 | -0.884% |
| CCCNC(=O)c1ccc(CN(c2ccccc2)S(C)(=O)=O)cc1 | -1.98% |
| CCOc1ccccc1NC(=O)c1c(OC)cccc1OC | -8.01% |
| CCc1ccc2oc(C(=O)N(Cc3sccc3C)C3CCS(=O)(=O)C3)c(C)c2c1 (stereo not drawn) | 5.29% |
| COc1cc(C(=O)Nc2nc(C(F)(F)F)c(-c3ccccc3)s2)cc(OC)c1OC | -2.91% |
| CCN1CCN(c2ccc(Nc3ccnc4cc5ccccc5cc34)cc2)CC1 | 7.87% |
| COc1ccccc1-c1c(C)nn2c(NCc3ccc(C)cc3)cc(C)nc12 | -3.7% |
| COC(=O)c1cc(S(=O)(=O)NCc2cccnc2)cn1C | 3.92% |
| CCCC(=O)Nc1ccc(Cl)c(NC(=O)COc2cccc3ccccc23)c1 | -8.88% |
| CC1CCN(C2=NC(=O)/C(=C\c3ccc(N(C)C)cc3)S2)CC1 | 7.49% |
| Cc1ccc(-n2c(C)nc3ccsc3c2=O)cc1 | -1.12% |

| Compound | % Inhibition @ 10 uM |
| --- | --- |
| Cc1noc2ncn(CC(=O)NCc3ccco3)c(=O)c12 | 1.06% |
| COc1ccc(-c2ncnn2-c2cccc(C(F)(F)F)c2)cc1OC | -3.6% |
| COc1ccc(S(=O)(=O)N2CCN(c3cccc(Cl)c3)CC2)cc1Br | -12% |
| O=C(NCCNC(=O)c1ccc2c(c1)OCO2)c1ccc2c(c1)OCO2 | 4.11% |
| Cc1nc2cc(-c3ccc4[nH]c(C)nc4c3)ccc2[nH]1 | -5.47% |
| Cc1ccc(-n2nc(C)c3c2OC(N)=C(C#N)C3c2cccc(F)c2)cc1 (stereo not drawn) | -0.941% |
| COc1ccc(/C=C/C2=CC(C)(C)NC(S)=N2)c(OC)c1 | -3.39% |
| CCOCCCNC(=O)Cn1nc(-c2ccccc2)ccc1=O | -2.99% |
| CCOC(=O)c1sc2ncnc(N3CCN(Cc4ccc5c(c4)OCO5)CC3)c2c1C | -3.23% |
| CCOc1cc(C(=O)NC(C)c2ccc(CC)cc2)cc(OCC)c1OCC (stereo not drawn) | -4.91% |
| O=C(NCCc1nc2ccccc2n1Cc1cccc2ccccc12)c1ccco1 | -2.99% |
| Cc1cc(C)n(-c2nc3ccccc3nc2N2CCOCC2)n1 | 3.98% |
| Cc1sc(NC(=O)c2ccc(-c3ccccc3)cc2)c(C(N)=O)c1C | 5.42% |
| CCN1CC(=O)Nc2c(sc3nc(C)cc(C)c23)C1=O | -0.992% |
| Cc1ccccc1OCCCCn1c(C)nc2ccccc21 | 2.73% |
| COc1ccc(Nc2nc(OC(C(F)(F)F)C(F)(F)F)nc(N3CCCCC3)n2)cc1 | 1.49% |
| O=C1CC(C2CCCO2)C(=O)N1Cc1ccccc1 (stereo not drawn) | -3.77% |
| NC1=NC(=O)CC(c2ccccc2Cl)N1 (stereo not drawn) | -4.46% |
| O=C(C1=C(O)C(=O)N(CCO)C1c1cccc(F)c1)c1ccc(Cl)cc1 (stereo not drawn) | 0.727% |
| O=C(O)c1ccc(N2C(=O)c3ccccc3C2=O)cc1 | -2.77% |
| O=C(Nc1ccc(S(=O)(=O)Nc2nccs2)cc1)c1cccs1 | -2.98% |
| CCOc1ccccc1N(CC(=O)Nc1c(C)cc(C)cc1C)S(C)(=O)=O | -3.65% |

| Compound | % Inhibition @ 10 uM |
| --- | --- |
| CN1CCC(N2CCC(O)(c3ccc(Br)cc3)CC2)CC1 | 1.57% |
| OC1=C2C(=Nc3ccccc3SC2c2ccc(Br)cc2)c2ccccc21 (stereo not drawn) | 8.67% |
| C=CCSc1nc(N)c2c3c(sc2n1)COC(C(C)C)C3 (stereo not drawn) | -3.5% |
| Cn1c(=O)c2ncn(CC(=O)Nc3ccc4oc(-c5ccc(Cl)cc5Cl)nc4c3)c2n(C)c1=O | -3.69% |
| O=C(NCc1nnc(O)c2ccccc12)c1cc2ccccc2oc1=O | 3.35% |
| COc1ccc(C(C)C)cc1S(=O)(=O)Nc1ccc(Cl)cn1 | 6.47% |
| Cc1ccc(NC(=O)C2COc3ccccc3O2)cc1 (stereo not drawn) | -4.65% |
| COc1ccc(CCC(=O)Nc2cc(Cl)ccn2)cc1 | 5.17% |
| Cc1cc(C)n(C(=O)CCCOc2ccc(Cl)cc2Cl)n1 | -4.5% |
| COc1ccc2[nH]cc(CCN=C(N)N)c2c1 | -5.52% |
| CC(CNC(=O)COCc1cc(-c2ccc3c(c2)OCO3)on1)c1ccccc1 (stereo not drawn) | -2.69% |
| Cc1c(O)cc2n(c1=O)-c1ccc(Cl)cc1C2(C)C | 4% |
| COc1ccc(C2C(C#N)=C(N)Oc3c2sc2ccccc32)cc1 (stereo not drawn) | 2.01% |
| COc1ccccc1-c1cc(N)n(S(=O)(=O)c2cccc3nsnc23)n1 | -0.495% |
| COCCO/C(O)=C1\C(C)=NC2=C(C(=O)CC(C)(C)C2)C1c1ccccc1OCc1ccccc1 (stereo not drawn) | 2.45% |
| Cc1cc(C)c(C)c(OCCCCN2CCCCC2)c1 | -4.18% |
| CCOc1cc2c(cc1OCC)C(c1ccc(C#N)cc1)NCC2 (stereo not drawn) | -4.52% |
| O=C(c1ccc(F)cc1)N1CCC/C1=N/c1ccc(Cl)cc1 | -7.4% |
| CN1C(=O)N(C)C(=O)C(Cc2cccc(F)c2)(Cc2cccc(F)c2)C1=O | -3.07% |
| COc1ccccc1/C=C1\N=C(c2ccccc2F)OC1=O | -1.51% |
| CC(C)C[C@H](NC(=O)c1ccc(-c2ccccc2Cl)cc1)C(=O)NCC#N | -6.46% |
| CC1(C)CC(=O)C(/C=N/c2ncccn2)=C(O)C1 | -1.06% |
